Among all 300,000 compounds or so, about 22,000 (7.3%) were called active. The inconclusive results got no clear call from the source; some entries with a clear call stand among them for comparison. Cut-off read from the data, not from the text of the source: active = activity score below about -60%; inconclusive = mostly about -28% to -61%; inactive = positive scores.
Assay: Activators via SNCA 5'UTR binding, MLPCN (AID 1814)
Conditions: alpha-synuclein 5'UTR reporter, activators screen; stronger effect = lower value; tested at 7.5 µM

Activity score, inconclusive:
O=C(CCCc1ccccc1)Nc1cccnc1Cl -52.4%
Cc1ccc(NCC(=O)N/N=C/c2c[nH]c3ccccc23)cc1 -37.3%
C/C(=N/NC(=O)c1ccco1)c1ccc(Br)s1 -49%
O=C(Nc1ccccc1Cl)OCc1cncs1 -49.9%
O=C(N/N=C/c1cc(Cl)cc([N+](=O)[O-])c1O)NC12CC3CC(CC(C3)C1)C2 -29.9%
S=C(NC1CCCCC1)N1CCc2[nH]c3ccccc3c2C1 -54.2%
Cc1ccc(NC(=O)CCn2nnc3ccccc32)c(C)c1 -34.4%
C/C(=N\NC(=O)c1ccc(Cl)cc1)c1cccc(NC(=O)c2cccnc2)c1 -57.6%
O=C1OC(Cc2ccccn2)C(O)=C1C1=NCCCN1 (stereo not given) -55.8%
O=C1c2ccccc2C(=O)N1CCSC(=S)N1CCOCC1 -59.8%
COc1ccc(/C=C/C(=O)N2CCNC(=O)C2)c(OC)c1 -49.1%
Cc1ccc(SC[C@H](c2ccccc2)N2CCN(CC(C)C)CCC2=O)cc1 -61%
C=CCOc1ccc(C2C(C(=O)c3cccs3)=C(O)C(=O)N2c2nnc(C)s2)cc1 (stereo not given) -49.5%
Cc1cccc(N(C(=O)c2csnn2)C(C(=O)NC(C)(C)C)c2cccnc2)c1 (stereo not given) -51.6%
O=C(Nc1cccc(C(F)(F)F)c1)c1cc2c(s1)-c1ccccc1OC2 -60.5%
CCSc1nnc(NC(=O)c2ccc3ccccc3n2)s1 -50.7%
Cc1noc(C)c1COC(=O)c1cc(C)n(-c2ccccc2)c1C -60.1%
CC(=O)c1cnn(-c2cc(Oc3cccc(C)c3)ncn2)c1C -38.6%
O=C(NCc1cccnc1)C(=O)Nc1nc2ccccc2s1 -45.4%
COc1ccc(C(=O)c2ccc(Br)cc2)cc1 -58.8%
C/C(=N\Nc1ccccn1)c1ccc(Br)s1 -50.8%
O=C(Nc1cccc(C(F)(F)F)c1)C(=O)N1CCCCC1 -44.6%
COC(=O)c1cc(C#N)c(SCc2ccccc2)nc1C -46.1%
CCC(O)(CC)C(=O)NN(C(=O)CCl)c1ccccc1 -55.4%
O=C(O)/C=C/C(=O)NC1CCCCC1 -49.2%
CCOc1ccc(-c2noc(-c3ccncc3)n2)cc1OCC -59.1%
Clc1ccc(Cn2nnc(-c3ccccc3)n2)cc1 -53.5%
CCN(CC)CCNC(=O)c1cn(C)c2ccc(S(=O)(=O)N(C)C3CCCCC3)cc2c1=O -39%
O=C(Cc1nc2ccccc2[nH]c1=O)c1ccc(Cl)cc1 -55.4%
Cc1ccc(NC(=O)C(=O)NNC(=O)c2cccs2)cc1 -58.1%
O=C1NC(=O)/C(=C\c2ccc(Sc3ccc(Cl)cc3)o2)N1 -33.7%
Cc1ccc(CS(=O)(=O)c2ccc(C(=O)N3CCN(c4ccccn4)CC3)cc2[N+](=O)[O-])cc1 -44.2%
COc1ccc(C)cc1NC(=O)CSc1nnc(-c2ccc(Br)cc2)o1 -54.7%
CCOC(=O)c1cnn(-c2nc(-c3cccc(F)c3)cs2)c1C(F)(F)F -34.5%
CCOC(=O)Cc1csc(NC(=O)c2cccc(Cl)c2)n1 -49.7%
COc1cccc2sc(NNC(=O)C3=COCCO3)nc12 -53.2%
CC1=NN(c2ccc(C(=O)O)cc2)C(=O)CC1 -46.4%
O/C(=C\c1ccc2ccccc2n1)c1ccc(O)cc1O -28.8%
O=C(O)C1CC(c2ccccc2)=Nc2ccccc2S1 (stereo not given) -61.2%
C[C@@H]1C[C@H](Nc2ccccc2)c2ccccc2N1C(=O)c1cccnc1 -12.5%
CCOc1ccc2[nH]c3c(NCCOC)ncnc3c2c1 -60.1%
Cc1cccc(-c2cc(C(=O)NCc3ccccn3)c3ccccc3n2)c1 -58.8%
CCOC(=O)N/N=C\c1ccc(OC(=O)c2ccco2)cc1 -60%
Cc1cccc(N/C(N)=N/c2nc(C)cc(C)n2)c1 -29.8%
COc1ccc2[nH]c3c(c2c1)CCNC3c1ccc([N+](=O)[O-])o1 (stereo not given) -53.4%
CCc1ccc(CN(Cc2cccnc2)C(=O)/C=C/c2ccc(OC)cc2)cc1 -60.9%
COC(=O)C1=C(C)N(C)C(=O)/C1=C\c1cccs1 -43.3%
O=C(COC(=O)c1cccc([N+](=O)[O-])c1)c1ccc2c(c1)OCO2 -52%
COc1cccc(-c2nc3ccccc3s2)c1 -61.1%
COc1ccccc1Cc1nc(-c2ccc(Br)o2)no1 -50.1%
CC1(C)CC(=O)C(C=Nc2cc(C(=O)c3ccccc3)ccc2N)=C(O)C1 -44.2%
O=C(Nc1ccc(N2CCOCC2)cc1)c1ccc(Cl)nc1 -35.5%
O=C(COc1ccc2ccccc2c1Br)N1CCOCC1 -48.6%
C/C(=N/NC(=O)c1ccc(C)s1)c1cccc(NC(=O)c2ccoc2C)c1 -60.3%

Activity score, inactive:
Cc1cc(Br)ccc1NC(=O)CNC(=O)Cn1ncc(Cl)c(Cl)c1=O 62.7%
CCCCOc1ccccc1C1CC(=O)NC2=C1C(=O)CCC2 (stereo not given) 93.8%
O=C(Oc1c(CN2CCOCC2)cc(Cl)c2cccnc12)c1ccc(F)cc1 65.4%
COc1ccc(C(=O)/C(C#N)=N/Nc2ccc([N+](=O)[O-])cc2)cc1 102%
CC1=Nc2ccccc2/C1=C/c1sc(=N)n(-c2nccs2)c1O 62.5%
Cc1ccc(NC(=S)N=Nc2c(O)n(C)c3ccc(S(=O)(=O)N4CCOCC4)cc23)cc1C 76.9%
FC(F)(F)c1cc(Oc2ccccc2Cl)nc(-c2ccccn2)n1 64.2%
CCCc1ccc(-c2ccc(F)c(N)c2)nc1 98.8%
Cc1cc(N/N=C/c2ccc(O)cc2O)nc(-c2ccccc2O)n1 74.6%
O=C(Nc1nc(NC(=O)c2ccco2)n(-c2ccccc2)n1)c1ccccc1 79%
O=C(O)c1ccc(N/N=C/c2ccc(OC(=O)c3ccccc3Cl)cc2)cc1 57.4%
N#CC1=C(N)OC2=C(CCc3ccccc32)C1c1ccccc1 (stereo not given) 70.4%
CCCCOc1ccc(-c2cnc3ccccc3n2)cc1 101%
Cc1ccc(C(=O)NC(=S)Nc2ccc(-c3cc4ccccc4oc3=O)cc2)c(C)c1 88.3%
CCN(CC)c1ccc2c(-c3ccc(S(=O)(=O)O)cc3S(=O)(=O)[O-])c3ccc(=[N+](CC)CC)cc-3oc2c1 80.2%
O=c1c(Cl)c(N2CCCCC2)cnn1-c1nc2ccccc2[nH]1 93.2%
COC(=O)c1ccc2c(c1)C(C)(C)C(/C=C/c1ccc(OC)c(OC)c1OC)=[N+]2C 102%
O=[N+]([O-])c1cc(/C=N/n2cnnc2)ccc1N1CCCC1 65.5%
Cc1cc(C)n(-c2nc(N(c3ccccc3)c3ccccc3)nc(-n3nc(C)cc3C)n2)n1 57%
CC(C)(C)c1ccc(C(=O)Nc2ccc(CC(=O)O)cc2)o1 111%
CCN(CC)c1ccc(C2=NNC(=O)CC2C)cc1[N+](=O)[O-] (stereo not given) 98.5%
COc1ccc(N=C2S/C(=C\c3ccc(Cl)c([N+](=O)[O-])c3)C(=O)N2CCN(C)C)cc1 80.6%
Cc1ccc(C(=O)O/N=C(\N)c2ccccn2)cc1 65.3%
O=C(Nc1ccc(Oc2c(F)c(F)c(F)c(F)c2F)cc1)OC1CCN2Cc3ccccc3N=C12 (stereo not given) 104%

Activity score, active:
CCOC(=O)c1oc2ccc(CNCCO)c(Cl)c2c1C -62.8%
COc1ccccc1C(=O)NNC(=O)c1ccc(F)cc1 -92.4%
COc1ccc(C(=O)Nc2cnc3ccccn3c2=O)cc1 -169%
Clc1c(CSc2nc3ccccc3o2)nc2sccn12 -117%
CCc1ccc2c(c1)/C(=N/N(C)C(=S)NC)C(=O)N2 -70.9%
COc1ccc(-c2nc(C#N)c(NCc3ccco3)o2)cc1 -182%
COc1ccc(N=Cc2nc(-c3ccco3)oc2O)cc1 -111%
COc1cc2cc(-c3ccc(O)cc3O)nc(C)c2cc1OC -116%
CCS(=O)(=O)N1Cc2ccccc2CC1C(=O)Nc1nc2ccccc2[nH]1 (stereo not given) -101%
O=C(N/N=C1/CC2C=CCC12)c1ccc(Br)o1 (stereo not given) -83.1%
CC(=O)c1ccc2noc(-c3cccc(C)c3)c2c1 -99.1%
O=C1c2cccc3c(N4CCCCC4)ccc(c23)C(=O)N1CCO -120%
Cn1cccc1CNC(=O)Nc1ccc(Cl)cc1 -115%
CCn1cnc2sc(-c3ccccc3)cc2c1=O -130%
O=C(Nc1ccc(F)cc1)NC1CCCCC1 -111%
Cc1cc(=O)oc2cc(NC(=O)CCOc3ccccc3)ccc12 -82.1%
Clc1ccc(-c2cnc3ccccc3n2)cc1 -208%

Reference: PubChem BioAssay AID1814 (Broad Institute, 2009)
